# Measured values reported in PubChem BioAssay AID686970 (National Center for Advancing Translational Sciences (NCATS), 2013).
# Out of some 360,000 compounds screened, about 6,000 (1.7%) were called active. The shares of active, inactive and inconclusive entries below differ from those in the screen. The call rests on the fitted dose curve; in most records, active means well fitted cell-killing curve with a large enough effect; inconclusive means small, poorly fitted or top-dose-only effect, or effect the other way; inactive means flat fitted curve, though single readings scatter. No potency is given beside an inconclusive call; the fits are too rough.
# Assay: qHTS for induction of synthetic lethality in tumor cells producing 2HG: qHTS for the HT-1080-NT fibrosarcoma cell line;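 further: NT is the 2HG producing partner of a matched IDH1 knockdown line; nearly all actives have a fitted effect of over 55% in size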;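 on activity, negative = less viability: 0% = DMSO-treated cells and -100% = media-only wells without cells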
# Details: HT-1080-NT fibrosarcoma viability, CellTiter-Glo ATP luminescence, 48 h; activity, negative = less viability: at 46.1 µM (top of the series) unless noted
# In short: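 Toxicity toward the 2HG-producing NT line was scored as %Activity, normalised to DMSO and no-cell wells, from CellTiter-Glo luminescence after 48 hours' treatment.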
# Potency means the concentration at half of the fitted maximal effect; tags describe the fitted curve by direction and shape.
SMILES,Potency,"activity, negative = less viability"
NC(=O)CC(NC(=O)Cc1ccc(Br)cc1)c1ccc(N2CCC(Cc3ccccc3)CC2)c([N+](=O)[O-])c1 (stereo not given),"inconclusive [cytotoxic, single point]",
CC(C)(C)c1ccc(C(=O)CCC(=O)NCc2ccccc2)cc1,"inconclusive [cytotoxic, single point]",
CCn1cc(C2=NC(C)CO2)c2ccccc21 (stereo not given),active: 11.2 µM,
O=[N+]([O-])c1ccc(N=Nc2ccc(O)c3ccccc23)cc1,active: 25.9 µM,
O=S(=O)(O)c1cc(O)c2c(O)c(N=Nc3cc(Cl)ccc3O)c(S(=O)(=O)O)cc2c1,"inconclusive [cytotoxic, single point]",
CCCC(=O)N(Cc1cc2ccccc2[nH]c1=O)c1ccccc1OC,"inconclusive [cytotoxic, full curve]",
CCOC(=O)CCc1c(C(=O)OCC)[nH]c(CC)c1C(=O)OCc1ccccc1,"inconclusive [cytotoxic, single point]",
COc1ccc(-n2cc(-c3ccccc3)[n+]3c2CCCCC3)cc1,"inconclusive [cytotoxic, partial curve]",
CC(C)CC(N)c1csc(Nc2ncccn2)n1 (stereo not given),"inconclusive [cytotoxic, partial curve]",
OC1(c2cccc(C(F)(F)F)c2)CCN(c2ncnc3c2[nH]c2ccc(F)cc23)CC1,active: 23.1 µM,
CC1(C)CC(=O)C(C=Nc2ccc(O)cc2)=C(O)C1,"inconclusive [cytotoxic, single point]",
Cc1cc(-c2ccccc2)nc2[n+]1CCN2C,"inconclusive [cytotoxic, partial curve]",
COc1ccc(C2=CC(c3cc(OC)c(OC)c(OC)c3)NC(=S)N2)cc1 (stereo not given),"inconclusive [cytotoxic, single point]",
O=C(CCCCCn1c(=S)[nH]c2ccc(N3CCOCC3)cc2c1=O)NCc1ccc(Cl)cc1,inactive,
CC(C)CNC(=S)NNC(=O)c1csc2c1CCCC2,active: 8.91 µM,
CC(=O)N1CCC(N(CCN2CCOCC2)C(=S)Nc2ccc(C)c(C)c2)CC1,"inconclusive [rising, single point]",
C#CCOCCOCCOCCNc1nc(N2CCN(C(=O)[C@H](CCC(=O)O)n3cc([C@@H](N)CCCCN)nn3)CC2)nc(N2CCN(C(=O)[C@H](CCCCN)n3cc([C@@H](N)CC(N)=O)nn3)CC2)n1,,inconclusive: 35.8%
CCN(CC)CCn1c(=N)n(CC(O)COc2ccccc2)c2ccccc21 (stereo not given),active: 16.4 µM,
Cc1cc(C)c(S(=O)(=O)NC2CCN(Cc3ccccc3)CC2)c(C)c1,inactive,
Cn1c(NCCCN2CCOCC2)nc2c1c(=O)n(Cc1ccc(Cl)cc1)c(=O)n2C,inactive,
CCCCCCCCCCCCCCCCCCNc1ccn(C2OC(COP(=O)(O)OCC3OC(n4cc(F)c(=O)[nH]c4=O)CC3O)C(O)C2O)c(=O)n1 (stereo not given),"inconclusive [cytotoxic, single point]",
O=[N+]([O-])c1ccc2oc(-c3cccc(O)c3)nc2c1,"inconclusive [cytotoxic, partial curve]",
CN(C)/N=C/C=C1\CCC/C(=C/c2cccs2)C1=O,"inconclusive [rising, single point]",

SMILES,Potency,"activity, negative = less viability"
O=C(NC(=S)N1CCOCC1)c1ccccc1Cl,inactive,
COc1cc(OC)cc(C(=O)N2CCCc3ccccc32)c1,"inconclusive [cytotoxic, single point]",
Cc1ccc(-c2ocnc2C(=O)Nc2ccccc2NC(=O)c2ccccn2)cc1,"inconclusive [cytotoxic, partial curve]",
CCCCNC(=O)c1cc(C)nc2ccccc12,inactive,
Cc1c([N+](=O)[O-])c(C(=O)NC2CCCCC2)nn1C,inactive,
O=C1NCCOC(=O)[C@H](Cc2ccc(F)cc2)CC/C=C/C[C@H]1CC(=O)N(CCO)Cc1ccccc1,inactive,
C[C@@]12C(=O)Nc3cc(F)ccc3C(=O)N1[C@H]1c3cc(Br)ccc3OC[C@@H]1[C@@H]2c1ccccc1,"inconclusive [cytotoxic, single point]",
CN1CCN(CC/C=C2/c3ccccc3Sc3ccc(S(=O)(=O)N(C)C)cc32)CC1,active: 25.9 µM,
O=C(CCCN1CCc2[nH]c3ccc(F)cc3c2C1)c1ccc(F)cc1,active: 18.4 µM,
CCOC(=O)c1csc(NC(=O)CSc2nnnn2-c2ccc(OC)cc2)n1,"inconclusive [cytotoxic, single point]",
CCOC(=O)c1c(NC(=O)CCl)sc(C(=O)N(CC)CC)c1C,"inconclusive [cytotoxic, single point]",
CCOc1ccccc1-c1nc(-c2cc3ccccc3nc2OC)no1,inactive,
C=C(C)COc1ccc(-c2ncncc2-c2ccc(Br)cc2)c(O)c1,"inconclusive [cytotoxic, partial curve, poor fit]",
CC(=O)Nc1ccc(N2CCOCC2)c([N+](=O)[O-])c1,,inconclusive: 30.3%
Oc1ccccc1/C=N/Nc1ccccc1,"inconclusive [cytotoxic, full curve]",
O=C(O)CCCC(=O)Nc1cccc(-c2nc3ccccc3[nH]2)c1,inactive,
COCCNCCCOc1ccc(Cl)cc1Br,"inconclusive [cytotoxic, single point]",
Cc1ccc(C)c(CN2CCC(CNC(=O)Nc3ccc(C)c(F)c3)CC2)c1,"inconclusive [cytotoxic, single point]",
Cn1cncc1C#Cc1c(-c2ccsc2)sc2ccccc12,"inconclusive [cytotoxic, single point]",
O=C(NC(c1ccc(Cl)cc1)c1cnccn1)C1CCN(Cc2ccc(Cl)cc2)CC1 (stereo not given),,inconclusive: -30.4%
COCCNC(=O)C1CCC(CNS(=O)(=O)c2ccccc2)CC1 (stereo not given),"inconclusive [rising, partial curve, poor fit]",
O=C(CCc1ccncc1)NC1CCCc2c1cnn2-c1ccc(F)cc1F (stereo not given),"inconclusive [cytotoxic, single point]",
